Reference: the supplement of paper PMC10441789
The other results are listed elsewhere or left out. Antibody binding of pooled human sera (four to six donors per pool; dilution not stated) to peptides of the Trypanosoma cruzi antigen TSSA on microarrays. Quantile-normalised fluorescence in arbitrary units, mean of duplicate arrays; higher = more binding. No active / inactive call. The uninfected pools are read here as the healthy donors of the same country. The strongest signals lie near the top of the scale (about 60,000).

system: pooled sera of uninfected people, Colombia; experiment: antibody binding signal (normalised fluorescence) (arbitrary fluorescence units); higher = stronger serum antibody binding to peptide
Description: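 Microarray of 15-residue peptides over residues 30-55 of Trypanosoma cruzi TSSAII, each with 1 to 10 substitutions at naturally variable positions, probed with one serum pool per country.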

Sequence | antibody binding signal
EKKTAAGGTPSQPGA | 313
SGKDKKTAAGEAPSP | 572
TPPSGTENKAAAGEA | 403
GKDKKAATGGTPSQS | 157
GKDNKPAAGGAPSPP | 122
DKKPAAGGAPSPPGA | 176
KKPAAGEAPSPPGAS | 150
GKDNKPATGEAPSQP | 298
TEKKTAAGETPSQPG | 1300
TENKTAAGGTPSPSG | 539
PSGKENKPATGGTPS | 334
KENKTAAGETPSPSG | 149
GTDKKPAAGEAPSQP | 139
NKPATGETPSPSGAS | 314
ISTPPSGKDNKAAAG | 152
NKTAAGEAPSQPGAS | 508
TENKAATGETPSPPG | 131
SGKDKKPATGGAPSQ | 345
SGKENKPATGETPSP | 327
SGKEKKTATGETPSP | 120

Sequence | antibody binding signal
PSGTDNKTAAGGTPS | 349
PSGTENKPATGETPS | 330
TDNKAAAGGTPSPPG | 409
TISTPPSGKEKKPAT | 329
GKENKPATGEAPSQS | 215
GTEKKPAAGGAPSPS | 108
GKEKKTAAGEAPSPP | 414
GTEKKPAAGEAPSPS | 101
PSGKENKTAAGEAPS | 802
GKEKKTAAGETPSPP | 185
GKEKKPATGEAPSPS | 148
TISTPPSGKEKKTAA | 214
TDNKPATGEAPSPSG | 122
STPPSGKDNKAAAGE | 324
TENKAATGETPSPSG | 130
TPPSGTEKKTATGGT | 136
SGTEKKAATGGAPSP | 1260
SGKDNKAATGETPSQ | 327
SGKDNKAATGGTPSP | 393
SGTENKAAAGEAPSQ | 110
